Assay results as given in a collection of fitness landscapes (doi:10.1016/j.celrep.2020.107928).
Whole data set: some 81,000 sequences, median “one-hybrid fitness for binding NBS DNA” near -0.1, cut for the highest 2% near 0.36. The list shows a part of the results.

B1: Caulobacter ParB omega fusion; a variant is named by its letters at X, in order, B8GW30 (parent)
chain: MESVVVGEPGMSEGRRGLGRGLSALLGEVDAAPAQAPGEQLGGSREAPIEILQRNPDQPRRTFREEDLEDLSNSIREKGVLQPILVRPSPDTAGEYQIVAGERAWRAAQRAGLKTVPIMVRELDDLAVLEIGIIENVQRADLNVLEEALSYKVLMEKFERTQENIAQTIGKSXSHVANXMRLLXLPDEVQSYLVSGELTAXHARAIAAAADPVALAKQIIEGGLSVRETEALARKAPNLSAGKSKGGRPPRVKDTDTQALESDLSSVLGLDVSIDHRGSTGTLTITYATLEQLDDLCNRLTRGI

Variants of: B1
Assay: one-hybrid fitness for binding NBS DNA (the Noc-binding site; scaled: cognate 1, non-cognate 0); higher = stronger binding
Conditions: with NBS DNA site
In short: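 On M9-minus-histidine containing 0.1 mM IPTG and 5 mM 3-AT, E. coli USO cells with a HIS3 reporter, site 19 bp from the promoter, grew 48 hours at 37°C to select Caulobacter ParB libraries randomised at four specificity codons. Plasmids from before and after were Illumina-sequenced, with three replicate libraries pooled and variants under 10 reads left out. Fitness is the log change in variant-to-wild-type read ratio, rescaled against cognate and non-cognate.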

Point of comparison: RRQA, “one-hybrid fitness for binding NBS DNA” value 0.695. Against it:
- TKSG — lower, ≤ 0.2
- YREG — lower, ≤ 0.2
- YLLA — lower, ≤ 0.2
- AGRH — lower, ≤ 0.2
- YRCF — lower, ≤ 0.2
- SASE — lower, ≤ 0.2
- QFGF — lower, ≤ 0.2
- FDNS — lower, ≤ 0.2
- AMLC — lower, ≤ 0.2
- PLLD — lower, ≤ 0.2
- IRVR — lower, ≤ 0.2
- YYIR — lower, ≤ 0.2
- NYPC — lower, ≤ 0.2
- YRTV — lower, ≤ 0.2
- GLMR — lower, ≤ 0.2
- SKLV — lower, ≤ 0.2
- HEKS — lower, ≤ 0.2
- MGTV — lower, ≤ 0.2
- FPSY — lower, ≤ 0.2
- AVGA — lower, ≤ 0.2
- PQIF — lower, ≤ 0.2
- QERG — lower, ≤ 0.2
- APWR — lower, ≤ 0.2
- YTRG — lower, ≤ 0.2
- AVDM — lower, ≤ 0.2
- HGCT — lower, ≤ 0.2
- PDPG — lower, ≤ 0.2
- FGQL — lower, ≤ 0.2
- FLLP — lower, ≤ 0.2
- LANG — lower, ≤ 0.2
- EHPR — lower, ≤ 0.2
- SFMG — lower, ≤ 0.2
- NNAY — lower, ≤ 0.2
- PRGE — lower, ≤ 0.2
- KPRY — lower, ≤ 0.2
- CHDY — lower, ≤ 0.2
- VQRA — lower, ≤ 0.2
- REHR — lower, ≤ 0.2
- AWHC — lower, ≤ 0.2
- ATAV — lower, ≤ 0.2
- NGSF — lower, ≤ 0.2
- REAI — lower, ≤ 0.2
- DWCR — lower, ≤ 0.2
- VKRF — lower, ≤ 0.2
- IPTL — lower, ≤ 0.2
- KPTS — lower, ≤ 0.2
- TPAC — lower, ≤ 0.2
- RDLD — lower, ≤ 0.2
- DRTG — lower, ≤ 0.2
- PYSN — lower, ≤ 0.2
- SKEG — lower, ≤ 0.2
- YHHL — lower, ≤ 0.2
- WAMG — lower, ≤ 0.2
- FGRS — lower, ≤ 0.2
- KRMM — lower, ≤ 0.2
- CSLT — lower, ≤ 0.2
- EAAR — lower, ≤ 0.2
- HYIS — lower, ≤ 0.2
- PNLL — lower, ≤ 0.2
- HYKF — lower, ≤ 0.2
- AVER — lower, ≤ 0.2
- SRND — lower, ≤ 0.2
- VRES — lower, ≤ 0.2
- CCTF — lower, ≤ 0.2
- PRFR — lower, ≤ 0.2
- LHSR — lower, ≤ 0.2
- MSSS — lower, ≤ 0.2
- WKLS — lower, ≤ 0.2
- RIWS — lower, 0.397
- PGHN — lower, ≤ 0.2
- LVAR — lower, ≤ 0.2
- QYHN — lower, ≤ 0.2
- QKIC — lower, ≤ 0.2
- ECMT — lower, ≤ 0.2
- NADT — lower, ≤ 0.2
- WPFF — lower, ≤ 0.2
- WYAI — lower, ≤ 0.2
- DTIR — lower, ≤ 0.2
- HPLT — lower, ≤ 0.2
- VQAV — lower, ≤ 0.2
- KVRR — lower, 0.23
- ATAP — lower, ≤ 0.2
- SQGC — lower, ≤ 0.2
- RLKT — lower, 0.644
- VKNF — lower, ≤ 0.2
- QDEG — lower, ≤ 0.2
- TYFT — lower, ≤ 0.2
- FLVG — lower, ≤ 0.2
- VYAS — lower, ≤ 0.2
- TTLN — lower, ≤ 0.2
- CWNG — lower, ≤ 0.2
- CHPY — lower, ≤ 0.2
- PQEG — lower, ≤ 0.2
- DALK — lower, ≤ 0.2
- TSKL — lower, ≤ 0.2
- QTGF — lower, ≤ 0.2
- MGAR — lower, ≤ 0.2
- TRSV — lower, ≤ 0.2
- SYTN — lower, ≤ 0.2
- VKPS — lower, ≤ 0.2
- SPVL — lower, ≤ 0.2
- CYRP — lower, ≤ 0.2
- RFFC — lower, ≤ 0.2
- QSHH — lower, ≤ 0.2
- RMYT — lower, 0.417
- QDMG — lower, ≤ 0.2
- SHTT — lower, ≤ 0.2
- KHLE — lower, ≤ 0.2
- SVVT — lower, ≤ 0.2
- SAER — lower, ≤ 0.2
- QMLY — lower, ≤ 0.2
- PMSG — lower, ≤ 0.2
- PPRR — lower, ≤ 0.2
- FIHY — lower, ≤ 0.2
- VERT — lower, ≤ 0.2
- MIGV — lower, ≤ 0.2
- VLKM — lower, ≤ 0.2
- LVQV — lower, ≤ 0.2
- TWRG — lower, ≤ 0.2
- TGSS — lower, ≤ 0.2
- GPLP — lower, ≤ 0.2
- SMRN — lower, ≤ 0.2
- CYLS — lower, ≤ 0.2
- LRMV — lower, ≤ 0.2
- VLPE — lower, ≤ 0.2
- HNVC — lower, ≤ 0.2
- RIRG — lower, ≤ 0.2
- HVVV — lower, ≤ 0.2
- HDTT — lower, ≤ 0.2
- ERNR — lower, ≤ 0.2
- KHEA — lower, ≤ 0.2
- APTD — lower, ≤ 0.2
- EDRA — lower, ≤ 0.2
- GSSP — lower, ≤ 0.2
- ETNG — lower, ≤ 0.2
- RVWT — lower, 0.263
- LWYN — lower, ≤ 0.2
- QCLC — lower, ≤ 0.2
- NDNS — lower, ≤ 0.2
- SLKM — lower, ≤ 0.2
- CDHG — lower, ≤ 0.2
- CHQS — lower, ≤ 0.2
- QEQW — lower, ≤ 0.2
- SSSI — lower, ≤ 0.2
- MWMK — lower, ≤ 0.2
- KMNV — lower, ≤ 0.2
- VVKT — lower, ≤ 0.2
- TTFI — lower, ≤ 0.2
- LTTD — lower, ≤ 0.2
- RNPQ — lower, ≤ 0.2
- EHIT — lower, ≤ 0.2
- ELNV — lower, ≤ 0.2
